# Results as given in the supplement of paper PMC3334620.
# Whole data set: some 33,000 sequences, median “E-score (-0.5 to 0.5)” near -0.016, cut for the highest 2% near 0.31. Some of the results follow.
# Biological target: Cst6 (UniProt P40535)
# Experiment: PBM E-score (8-mer binding enrichment) (E-score (-0.5 to 0.5)); higher = stronger / more preferred TF binding; most listed sequences are background and not binding sites
# Settings: protein concentration: 200 nM; construct: GST-DNA-binding domain
# Outline: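 Universal all-10-mer Agilent arrays, fresh or stripped once, were converted to double-stranded form by primer extension. GST-tagged yeast transcription factors from PURExpress in vitro transcription/translation, full-length or DNA-binding domain only, were applied at about 100-200 nM and detected with fluorescent anti-GST. After masliner normalisation, the Universal PBM Analysis Suite scored each ungapped eight-base word together with its reverse complement by E-score.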
row,Sequence,PBM E-score
1,GGGAGCCC,-0.386
2,CTGTTGTA,0.0968
3,AAAGAACA,0.171
4,TAACTTCA,0.162
5,CAGATTAG,-0.133
6,GACAACAA,0.204
7,AGAGATAT,-0.00058
8,GAGTGCAC,-0.13
9,AATTTTCC,0.104
10,AGTGAAGA,-0.173
11,AGCGGAAG,-0.0688
12,CGGGAAAA,-0.0839
13,CCTATAAA,-0.00874
14,GCCGGCGA,-0.299
15,AAGAGTGG,-0.279
16,GATCCCCC,-0.411
17,GGAACCAA,-0.125
18,GGATACTA,0.0713
19,ACACAGGC,0.0379
20,GAACGTTA,-0.124
21,TAACGCAA,0.255
22,CCGCGTAG,0.0312
23,GCTAAGCC,-0.174
24,GTGCCATA,0.00902
25,GATGATGC,0.328

row,Sequence,PBM E-score
1,CCGTCCAG,-0.0988
2,CGCAACAC,0.0161
3,GCGCAACC,-0.233
4,CTCCCCAA,-0.139
5,AATTATTA,0.321
6,CTCCTCAA,-0.28
7,CGCTAGCC,-0.271
8,GTTCCCAA,-0.206
9,CCGATATA,-0.0171
10,ACGTCTAA,0.0702
11,CCTTTTCG,0.021
12,ATCTAAAG,-0.00075
13,CCGTTCAG,-0.073
14,AGTTGCCG,0.0837
15,CTTAGGCC,-0.185
16,CACGGTAA,0.0352
17,GGTCTAGA,-0.167
18,CATTACGG,0.168
19,GCGCATAC,-0.0378
20,TATTAGCA,0.0328
21,CCGTAGGC,-0.116
22,GACAGCCC,-0.272
23,ACATGCAC,0.0295
24,GGATAGTA,0.0601
25,CTGATTAC,0.239

row,Sequence,PBM E-score
1,GTCACCGA,0.426
2,CTCGACAC,0.0158
3,CTAGGGAA,-0.11
4,CTATTGGA,0.0987
5,CACATGTA,0.00769
6,CCCAGTTA,-0.28
7,ACCGCCCG,-0.3
8,CTGTATTA,0.106
9,AGTCTCAT,-0.217
10,CGTTGGTA,0.0178
11,GACTTTGA,0.0418
12,CCCAGTGA,-0.133
13,ATAATATC,0.219
14,AAGTCGGG,-0.208
15,AAACGCAA,0.254
16,GTGCTCGA,-0.121
17,GTGTGGTA,0.0556
18,CGCAATAC,0.165
19,GAGCATCC,-0.272
20,AGTGCAAC,-0.209
21,GCCAAATA,0.0707
22,GTGGTGCA,-0.132
23,GCCGATCC,-0.132
24,CCATCTGC,-0.0385
25,AACCAGAC,-0.0583

row,Sequence,PBM E-score
1,GGTCGATA,-0.0752
2,CGACTCCA,-0.279
3,GAGATGAC,0.239
4,CCCCATCG,-0.139
5,CGGACATA,0.0467
6,ATACGGCC,0.138
7,TAGAAAAA,0.0827
8,AACTATGA,0.221
9,GAACGTCC,0.0008
10,CCATCGAC,-0.185
11,ATGGTAAC,0.153
12,AGGATAAC,-0.0728
13,ATCGATAC,0.171
14,AGGCCATA,-0.286
15,ACTTAGTG,-0.0595
16,AGTGATGG,0.0422
17,CACCTGGG,-0.147
18,AGCCACGA,-0.0963
19,GTTGGTTA,0.00579
20,AGTCTTAT,-0.00794
21,AGTTTACG,0.199
22,CTACGCAA,0.119
23,CCTAGCAG,-0.268
24,GACAGATA,0.111
25,GTCATTAA,0.394

row,Sequence,PBM E-score
1,CAGCTACG,-0.0432
2,CATGCTTC,0.121
3,CGCGGTCC,-0.188
4,AAATGAAC,0.104
5,CAACGGCA,0.094
6,GGCAGTTA,-0.00143
7,GATCGCAA,0.184
8,GCCACGTA,0.196
9,GGGAAATA,-0.0876
10,CTATCTGC,-0.241
11,CCCGCAGC,-0.23
12,ACAACAAA,0.223
13,CCTCGGCA,0.0288
14,CTCTGGAA,-0.0613
15,ACTACTTA,0.0673
16,TCCCGGGA,-0.12
17,CGAGCAAA,-0.115
18,AAACCGCG,0.141
19,CCGAGATA,-0.0451
20,GGCCAGAA,-0.0118
21,CGCTTCGA,-0.201
22,CAGACGAA,0.188
23,AACGCGCG,0.16
24,CTCCGGAC,-0.223
25,ACCGAGGC,-0.279

row,Sequence,PBM E-score
1,GACGGTCA,0.128
2,GGTCTCGA,-0.12
3,ATGGAAAT,0.122
4,GGCAGCGA,-0.175
5,GGGATACA,-0.196
6,CCCCTAGA,-0.271
7,AGAAATCA,0.226
8,CCACACAC,-0.181
9,GCGAGGAC,-0.312
10,CGACGGAA,-0.188
11,GTCACAAC,0.267
12,AGTTCATA,0.0725
13,CTTGCTTC,0.0607
14,AAGCACCG,-0.284
15,ATAGGGAT,-0.103
16,CACTGGAC,-0.0242
17,GCGCCTGA,0.0826
18,AGGGCATG,-0.0674
19,AGCCTACA,-0.074
20,ACCGTGAA,-0.017
21,GGGCCTGA,-0.239
22,CACTCGCC,0.0603
23,ACACGCTC,-0.0487
24,GGGGCGCA,-0.14
25,ATCTAGCC,-0.107

row,Sequence,PBM E-score
1,ACATTGAA,0.111
2,CAGACTCG,-0.196
3,ACCTCAGC,-0.0534
4,CTTGCCGA,-0.11
5,ATTAGCTC,0.0684
6,CCGCACCG,0.171
7,ATAACCTA,0.105
8,ATCTTCAA,0.149
9,AATATGAG,0.132
10,AAGGAATG,0.00962
11,GACGAATA,0.197
12,CGTACAGA,0.0955
13,AGTGCCAG,-0.249
14,ACGTAGTA,0.244
15,ACGGGCGA,-0.255
16,ACTGATGG,-0.132
17,ACAGGTGC,-0.0896
18,CACGAAGA,0.165
19,ATGTCATC,0.432
20,CAACAGCC,0.153
21,CCGGTACA,-0.0357
22,CTAAGGTA,0.104
23,ACTTGTCC,-0.0374
24,ATTAGCGA,0.0978
25,ATTACATC,0.433

row,Sequence,PBM E-score
1,CGGAGGCC,-0.345
2,CACTGGCA,-0.228
3,CCAGCTCG,-0.248
4,TCATACAA,0.163
5,ATATTCTG,0.23
6,CTATTGAA,0.117
7,AATACGTC,0.323
8,CTTACGCA,0.249
9,AAGCATTC,0.0269
10,ATTCCGAG,0.0472
11,CGGGGACC,-0.235
12,CTAAGGAC,-0.288
13,TTAAGTAA,0.179
14,ATTTATGC,0.117
15,GACAAAAC,0.166
16,ACGCTTAG,0.0269
17,AGACTACA,-0.158
18,AATCGTCT,0.11
19,CAGGTTCG,-0.0843
20,AGTGTATG,0.132
21,AGGCGTCA,0.256
22,GAGAGACA,-0.217
23,CGTAATCC,0.3
24,ACTGTACC,-0.163
25,AGCCGCAG,-0.151

row,Sequence,PBM E-score
1,GTCTGCAA,-0.0255
2,AGGGGATC,-0.214
3,ATTGTCAG,0.187
4,AGCGACCC,-0.207
5,AGATAAGG,0.0246
6,AGGTATAT,0.158
7,ACAAGCCT,-0.0781
8,TAGTGACA,0.338
9,GGTAGCTA,-0.169
10,AAAAAGCT,-0.0599
11,CTCACTAC,-0.0184
12,AATTAGAG,0.153
13,CCTCGTCA,0.308
14,ACTCAGTG,-0.175
15,CTAGTTGA,0.11
16,CCCTGTAA,-0.0976
17,CAGCTTGA,-0.0516
18,AGTCTAAG,0.0832
19,GCAGTTCC,-0.193
